Several values for one entry are separate records, joined by “and”; a condition that tells them apart may be missing. Equal entries are not always repeated. In all, about 48,000 compounds went through this assay and about 1,200 (2.5%) were called active. Another 2% or so got no clear call; they are omitted.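 The calls were made as follows: active = activation of at least 60% and not above a set upper limit (about 1 call in 100 departs from these limits); inconclusive = activation of 40% to 60%, or above that upper limit; inactive = activation under 40%.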 This is one part of the list.

This test has as its target Probable G-protein coupled receptor 32 (Homo sapiens) (UniProt O75388). The test can be described thus: qHTS for Agonists of Human Resolvin D1 Receptor DRV1. Also: 0% is about no effect. The settings on record: CHO-K1 GPR32 beta-arrestin PathHunter luminescence, 90 min; at 76.9 µM; stronger effect = higher value; zero percent set by DMSO-only wells. The procedure, abridged: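 Engineered CHO-K1 line co-expressing GPR32-ProLink and EA-beta-arrestin. Compound treatment lasted 90 min at 37 °C. Luminescence was recorded after 1 h with substrate at ambient temperature, relative to DMSO basal wells.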
Sequence of UniProt O75388 (O75388 whole entry, looked up): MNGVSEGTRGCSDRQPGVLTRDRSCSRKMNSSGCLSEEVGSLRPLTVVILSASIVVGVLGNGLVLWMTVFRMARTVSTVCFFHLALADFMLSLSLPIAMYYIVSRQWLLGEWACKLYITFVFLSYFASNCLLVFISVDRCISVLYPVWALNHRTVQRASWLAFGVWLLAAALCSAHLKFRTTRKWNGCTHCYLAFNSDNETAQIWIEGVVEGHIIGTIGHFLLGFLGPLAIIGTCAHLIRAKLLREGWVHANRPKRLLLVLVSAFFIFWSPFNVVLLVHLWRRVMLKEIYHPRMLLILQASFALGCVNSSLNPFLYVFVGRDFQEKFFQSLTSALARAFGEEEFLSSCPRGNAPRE
On the technique in general: In qHTS, concentration-response curves come from the screen itself.
Consider `COc1ccccc1NC(=O)c1sc2nc(-c3cc4cc(Cl)ccc4oc3=O)[nH]c(=O)c2c1C`, for which the activation is inactive: 0.705%.

Turning to `Cc1ccc(CNC(=O)c2oc3ccc(S(=O)(=O)N4CCCC(C)C4)cc3c2C)cc1` (stereo not drawn), the activation is inactive: 14.3%.

As to `Cc1oc2ncnc(N3CCCCC3)c2c1C(=O)NCC1CCN(Cc2ccccc2F)CC1`, the activation is inactive: -13.6%.

For `COc1ccc(OC)c(NC(=O)Cn2nc3c(cc2=O)CCCC3)c1`, the activation is inactive: -2.94%.

For `O=C(NCCN1CCOCC1)c1ccc(Cl)cc1`, the activation was inactive: 2.78% and inactive: -3.73%.

`CCc1ccc(NC(=O)CC2C(=O)N(c3cccc(C)c3)C(=O)N2Cc2cccc(OC)c2)cc1` (stereo not drawn): the activation is inactive: -21.4%.

In the case of `COc1ccc(CCNS(=O)(=O)c2ccc3c(c2)c(=O)n(C)c(=O)n3C)cc1OC`, the activation is inactive: -0.728%.

Consider `Cc1ccc(NC(=O)CCCc2nnc3n(C)c(=O)c4sccc4n23)cc1C`, for which the activation is inactive: 4.01%.

For the molecule `Cc1ccc(NC(=O)c2nc(S(C)(=O)=O)ncc2N(Cc2cccc(F)c2)Cc2ccco2)cc1C`, the activation is inactive: -17.9%.

Consider `CCc1nn(CC(=O)NCc2ccco2)c(=O)c2cc3cc(F)ccc3n12`, for which the activation is inactive: -3.66%.

On to `NS(=O)(=O)c1ccc(NC(=O)c2cc(-c3cccs3)nc3ccccc23)cc1`, for which the activation was inactive: 1.82%.

With `O=C(CN1C(=O)C2CCCCN2c2ccc(C(=O)N3CCCC3)cc21)NCc1ccc(F)cc1` (stereo not drawn), the activation is inactive: -15.7%.

Turning to `COc1ccc(CNC(=O)C2CCCCN2S(=O)(=O)c2ccc(F)cc2)cc1` (stereo not drawn), the activation was inactive: -4.2%.

`Cc1nc(N2CCOCC2)c2c(C(=O)N3CCN(c4cc(Cl)ccc4C)CC3)c(C)oc2n1`: the activation was inactive: -18.5%.

`CCN1CCC(N(Cc2ccc(F)cc2)C(=O)Nc2cc(C)ccc2C)CC1`: the activation is inactive: -3.63%.

For `CCCNC(=O)CN1C(=O)COc2ccc(S(=O)(=O)N3CCCC3)cc21`, the activation is inactive: -16.2%.

Consider `CCOc1ccccc1CNc1ncnc2onc(-c3ccc(F)cc3)c12`, for which the activation is inactive: -3.41%.

On to `CC1CCCCN1C(=O)CSc1nc2ccccc2nc1Cc1ccccc1` (stereo not drawn), for which the activation was inactive: -4.95%.

`COc1ccc(-n2cc(C(=O)NCCc3ccc(C)cc3)c3ccccc3c2=O)cc1`: the activation was inactive: -22.5%.

On to `O=C(Nc1ccc(S(=O)(=O)Nc2ncccn2)cc1)c1cccc(Cl)c1`, for which the activation was inactive: 43.3%.

Consider `CCOc1ccc(N2C(=O)c3[nH]nc(-c4ccccc4)c3C2c2ccc(O)c(OC)c2)cc1` (stereo not drawn), for which the activation is inactive: -9.41%.

In the case of `COC(=O)c1ccc(C2CC(=O)Nc3c2c(C)nn3-c2nc(C)cc(C)n2)cc1` (stereo not drawn), the activation was inactive: -8.84%.

For `O=C(Cn1ccc2cc(S(=O)(=O)N3CCCC3)ccc21)NCc1ccc(Cl)cc1`, the activation was inactive: -15.5%.

`CCN(CC)c1ccc(NC(=O)CN2CCN(S(=O)(=O)c3ccc(C(C)C)cc3)CC2)cc1`: the activation is inactive: -20.4%.

`Cc1cc(C)cc(NC(=O)CC(C)n2nc(C)cc2C)c1` (stereo not drawn): the activation was inactive: -14.1%.

On to `COc1ccc(CNC(=O)c2ccc3c(c2)N=C(C)c2c(C)ccc(C)c2S3)cc1`, for which the activation is inactive: -19.8%.

In the case of `CCn1c(SC)nc2c([nH]c3ccccc32)c1=O`, the activation was inactive: -13.9%.

With `CCOC(=O)c1c(S(=O)(=O)N2CCC(C(=O)Nc3ccc(C)cn3)CC2)c(C)n(C)c1C`, the activation was inactive: -3.6%.

On to `COc1cc(NC(=O)Cn2c(=O)n(Cc3ccccc3)c(=O)c3oc4ccccc4c32)cc(OC)c1`, for which the activation is inactive: -11.6%.

As for `COc1ccc(-c2noc(CC(=O)N(C)c3ccccc3F)n2)cc1`, the activation was inactive: -9.27%.

On to `O=C(Nc1ccc(F)cc1)C1CCN(c2nc3ccccc3nc2C(F)(F)F)CC1`, for which the activation was inactive: 4.99%.

Regarding `Cc1cc(-c2ccc(S(=O)(=O)Nc3ccccc3C)cc2)on1`, the activation was inactive: -5.5%.

As to `Cc1cc(O)c(C(c2ccc(F)cc2)N2CCN(c3ccccc3)CC2)c(=O)n1Cc1ccco1` (stereo not drawn), the activation was inactive: -21.2%.

Turning to `CCCCN1C(=O)C(NC(=O)c2ccc(C(C)(C)C)cc2)(C(F)(F)F)C(C(=O)OC)=C1C` (stereo not drawn), the activation was inactive: -8.23%.

In the case of `COc1ccc(-c2nc(SCC(=O)NCc3nc4ccccc4n3C)n3[nH]c(=O)cc3n2)cc1`, the activation was inactive: -10.6%.

On to `Cc1ccc(NC(=O)CSc2nnc(C)s2)c(C)c1`, for which the activation was inactive: -2.86%.

Consider `COc1ccc(NC(=O)C2CCN(c3nc4ccccc4[nH]3)CC2)cc1OC`, for which the activation was inactive: 2.56%.

On to `COc1ccc(OC)c(NC(=O)Nc2cccc(OCc3cc(=O)n4cc(C)ccc4n3)c2)c1`, for which the activation is inactive: -7.64%.

Consider `O=C(CSc1nc2c(c(=O)[nH]1)CCC2)Nc1cccc(O)c1`, for which the activation is inactive: -14.4%.

As for `CC(NC(=O)c1cccc(Nc2nc3ccccc3n3nnnc23)c1)c1ccccc1` (stereo not drawn), the activation was inactive: 27.2%.

Regarding `Cc1ccc(N2CCN(c3ncnc4onc(-c5ccc(F)cc5)c34)CC2)c(C)c1`, the activation is inactive: -9.06%.

As to `COc1ccc(-n2nnnc2C2CCN(S(=O)(=O)c3cc(Cl)ccc3OC)CC2)cc1`, the activation is inactive: -7.51%.

In the case of `COc1cc(NC(=O)c2c(C)nn(-c3ccc(F)cc3)c2-n2cccc2)cc(OC)c1`, the activation is active: 103%.

Consider `CCn1c(=O)c2sccc2n2c(CCCC(=O)Nc3ccc(C)cc3)nnc12`, for which the activation was inactive: -6.26%.

Consider `Cc1ccc(S(=O)(=O)NCCc2nnc3ccc(SCc4cccc(F)c4)nn23)cc1`, for which the activation is inactive: -14.7%.

For `COc1ccc(-c2nc3ccccc3o2)cc1NC(=O)c1ccc(-c2ccc(C)c(Cl)c2)o1`, the activation was inactive: 4.71%.

Take `COc1ccc(CC(=O)Nc2c(C(=O)N3CCN(c4ccccc4F)CC3)oc3ccccc23)cc1OC`: the activation was inactive: -26.4%.

On to `CCOc1ccc(OCC)c(Nc2nc3ccccc3n3nnnc23)c1`, for which the activation is inactive: -4.95%.

On to `Cc1ccc(Nc2c(-c3ccco3)nc3ccc(C)cn23)cc1`, for which the activation is inactive: -12.8%.

Take `CCN(C(=O)c1cc2c(=O)oc3ccccc3c2s1)c1cccc(C(F)(F)F)c1`: the activation is inactive: 11.4%.

`COc1ccc(NC(=O)CSC2=Nc3ccccc3C3=NC(Cc4ccccc4)C(=O)N23)cc1` (stereo not drawn): the activation is inactive: -20.3%.

As for `O=C1C2=C(Nc3ccccc3SC2c2ccc(C(F)(F)F)cc2)c2ccccc21` (stereo not drawn), the activation is inactive: -36.1%.

For `O=C(CN1C=NS(=O)(=O)c2ccccc21)Nc1ccc(Br)cc1`, the activation was inactive: 10%.

The values are drawn from PubChem BioAssay AID1346428 (National Center for Advancing Translational Sciences (NCATS), 2018).
